# Data as given in PubChem BioAssay AID686978 (National Center for Advancing Translational Sciences (NCATS), 2013).
# Where “and” joins values, the source holds several entries; their conditions need not be identical. Identical values can stand only once. The whole screen tested about 420,000 compounds, of which about 64,000 (15%) were called active. This list was built around the results that the source calls inconclusive (neither active nor inactive); the mix of calls is not that of the screen. The call rests on the fitted dose curve; in most records, active means well fitted inhibition curve with a large enough effect; inconclusive means small, poorly fitted or top-dose-only effect; inactive means flat fitted curve, though single readings scatter. Potencies of inconclusive entries are left out as doubtful fits. A structure can be active in one record and inactive in another.
# Assay: qHTS for Inhibitors of human tyrosyl-DNA phosphodiesterase 1 (TDP1): qHTS in cells in absence of CPT; further: nearly all actives have a fitted effect of over 55% in size
# Conditions: DT40 Tdp1-/- hTDP1 cells, no CPT, ATP luminescence, 48 h; activity change, negative = growth inhibition: at 46.2 µM (top of the series)
# Method in brief: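 DT40 Tdp1-/-;hTDP1 cells, no CPT (DMSO vehicle only), 400 cells/well; compounds pin-transferred; ≥48 hr, 37 °C; CellTiter-Glo 30 min RT dark, luminescence read.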
# On the % scale 0 is the no-effect control and ±100 the full control effect; potency means the concentration at half of the fitted maximal effect; tags describe the fitted curve by direction and shape.
SMILES,Potency,"activity change, negative = growth inhibition"
Cc1cc(C)n(-c2ccccc2[N+](=O)[O-])n1,"inconclusive [inhibitor, full curve]",–
COCCNc1oc(/C=C/c2cccs2)nc1S(=O)(=O)c1ccccc1,"inconclusive [inhibitor, single point]",–
COc1ccc(CCNC(=O)c2c[nH]c3ccc(F)cc3c2=O)cc1OC,active: 13 µM,–
CCOC(=O)c1c(NC(=O)/C=C/c2ccccc2)sc2c1CCCC2,–,inactive: -19.4%
COc1ccc(N2CCN(C(=O)c3ccc(C)c(NC(=O)c4nsc5ccccc45)c3)CC2)cc1,"inconclusive [inhibitor, single point]",–
CC(C)c1[nH]nc2c1C(c1ccco1)C(C#N)=C(N)O2 (stereo not given),"inconclusive [inhibitor, single point]",–
O=C(NCc1ccco1)c1nn2c(C(F)(F)F)cc(-c3cccs3)nc2c1Cl,–,inactive: 2.81%
COc1ccc(CSc2nnc(N)s2)cc1F,"inconclusive [inhibitor, single point]",–
CC(C)COC(=O)N1CCN(S(=O)(=O)c2ccc3c(c2)CCC3)CC1,"inconclusive [inhibitor, single point]",–
CC(NC(=O)c1cccnc1)c1nnc2n1CCN(Cc1ccc(-c3ccccc3Cl)o1)CC2 (stereo not given),–,inactive: -21.9%
CN(C)c1ccc(C=Nc2cnc3ccccc3c2)cc1,"inconclusive [inhibitor, single point]",–
Cc1cc(C)n(CC(=O)NNC(=O)c2ccc(S(C)(=O)=O)cc2)n1,–,inactive: -3.86%
CC(C)(C)OC(=O)N1CCC(c2c(C(=O)NCc3ccccn3)cnn2-c2ccccc2)CC1,"inconclusive [inhibitor, single point]",–
CC(C)CNC(=O)C1(C)CCCN1C(=O)c1cc2ccccc2s1 (stereo not given),–,inactive: -23.4%
O=C(NC1CCCCC1)n1c(=O)oc2ccccc21,"inconclusive [inhibitor, single point]",–
COC(=O)c1ccc(C(=O)OC)c(NC(=O)/C=C/C(=O)O)c1,"inconclusive [inhibitor, single point]",–
Cc1nnc(SCc2ccc(C(=O)c3ccc(Cl)cc3)o2)n1-c1ccccc1,"inconclusive [inhibitor, single point]",–
Cc1ncc([N+](=O)[O-])n1Cc1cccc2ccccc12,"inconclusive [inhibitor, single point]",–
COc1ccccc1/C=C/C(=O)NCC(=O)N/N=C/c1ccc(C)o1,–,inactive: -8.64%
Cc1ccc(NC(=O)c2ccc(OCC3CCCO3)cc2)cc1 (stereo not given),"inconclusive [inhibitor, partial curve, poor fit]",–
CC(CN1CCCC1)OC(=O)c1ccc(Cl)cc1 (stereo not given),–,inactive: -1.52%
Cc1cc(S(=O)(=O)N(Cc2ccccc2)Cc2ccc(N(C)C)cc2)ccc1-n1cnnn1,"inconclusive [inhibitor, partial curve]",–
O=C(C1CCCCC1)N1CCC2CC1c1cc(Cl)ccc12 (stereo not given),"inconclusive [inhibitor, single point]",–
CC1N(C(=O)N2CCOCC2)CCN1S(=O)(=O)c1cccc(C(F)(F)F)c1 (stereo not given),–,inactive: -2.34%
Fc1ccc(-n2c(CN3CCCCC3)n[nH]c2=S)cc1,–,inconclusive: -9.28% [inhibitor]

SMILES,Potency,"activity change, negative = growth inhibition"
CCc1ccccc1N(CC)C(=O)c1cn(CC)c(=O)c2cc(OC)c(OC)cc12,active: 20.6 µM,–
COc1ccccc1C(=O)N/N=C/c1c[nH]c2ccccc12,–,inactive: -18.6%
CCOC(=O)c1cc(-c2ccccc2C)nn1CC1CC(c2ccc(OC)cc2)=NO1 (stereo not given),"inconclusive [inhibitor, single point]",–
Cc1cc2cc3n(c2nn1)N=C(Cl)CC3,active: 11.6 µM,–
O=C(CSCc1ccccc1)N1CCN(Cc2ccc3c(c2)OCO3)CC1,"inconclusive [inhibitor, single point]",–
O=C(c1ccco1)N1CCN(Cc2nc3ccccc3[nH]2)CC1,–,inactive: -7.51%
CCCn1c(C)cc(C(=O)CSc2nc3nc(C)cc(C)n3n2)c1C,"inconclusive [inhibitor, single point]",–
CC(=O)N1CC(C)Sc2ccc(S(=O)(=O)NCCc3ccc(C)cc3)cc21 (stereo not given),active: 7.31 µM,–
COc1ccc(C(=O)NCCCNC(=O)c2cccnc2)cc1OC,–,inactive: 15.1%
O=c1ccc(-c2ccc(S(=O)(=O)Nc3ccc(F)cc3)o2)n[nH]1,–,inactive: 2.24%
CCS(=O)(=O)c1ccc(O)c(NC(=O)NC2CCCCC2)c1,–,inactive: -12.6%
N#CC(=C1CCCC1)c1nc(-c2ccccc2O)cs1,"inconclusive [inhibitor, partial curve]",–
CC(Sc1nnc(-c2ccc(Cl)cc2Cl)n1Cc1ccccc1)C(=O)Nc1nccs1 (stereo not given),"inconclusive [inhibitor, single point]",–
N#CCSc1nc2[nH]ncc2c(=O)n1-c1ccccc1Br,–,inactive: -33.6%
O[C@@H]([C@H](O)[C@H](O)CBr)[C@H](O)CBr,inactive and active: 11.6 µM,–
COc1ccc(-c2[nH]c(-c3ccc(C)cc3)nc2SCC(=O)NC2CCCC2)cc1,"inconclusive [inhibitor, single point]",–
CCc1ccc(-c2cc3c(=O)n(CC(=O)NCCCN4CCN(Cc5ccccc5)CC4)nc(C)n3n2)cc1,active: 16.4 µM,–
CCOc1ccccc1NC(=S)NC(=O)C1CC1,"inconclusive [inhibitor, single point]",–
C[C@H](NC(=O)c1[nH]cnc1C(=O)Nc1ccccc1)C(=O)OC(C)(C)C,"inconclusive [inhibitor, single point]",–
O=C(/C=C/c1ccco1)Nc1ccccc1N1CCCC1,"inconclusive [inhibitor, partial curve]",–
[O-][N+](=C(c1ccccc1)c1ccccc1)c1ccccc1,"inconclusive [inhibitor, single point]",–
Cc1cc(C)cc(C(=O)N(Cc2nc(-c3ccc(Cl)cc3)no2)C(C)C)c1,active: 18.4 µM,–
COc1cc(-c2cnc3c(NC=O)cc(-c4ccc(N5CCN(C)CC5)cc4)cn23)cc(OC)c1OC,active: 3.66 µM,–
Cn1c(SCC(=O)c2cc3ccccc3o2)nnc1-c1ccccc1,–,inconclusive: -30.7% [inhibitor]
Cc1ccc(C)c(S(=O)(=O)NCc2cccnc2)c1,–,inactive: 3.81%

SMILES,Potency,"activity change, negative = growth inhibition"
COc1ccc(NC(=O)CC(c2ccc(F)cc2)c2ccc(OC(C)C)cc2)cc1 (stereo not given),active: 20.6 µM,–
COc1cccc(CNC(=O)[C@@H]2CCCN2C(=O)[C@@H]2CCCN2C(=O)c2ccc(Cl)cc2)c1,"inconclusive [inhibitor, single point]",–
CCO/C(C)=N/n1c2nc3ccccc3nc2c2c(=O)n(C3CCCC3)c(C)nc21,active: 14.6 µM,–
CCCCn1c(N)c(N(CCOC)C(=O)c2c(-c3ccccc3)noc2C)c(=O)[nH]c1=O,–,inactive: -20.7%
Cc1ccc(NC(=S)NCc2ccc3c(c2)OCO3)cc1,"inconclusive [inhibitor, single point]",–
Cc1cccc([C@@H]2[C@@H]3C(=O)N(Cc4ccccc4)C(=O)[C@@H]3[C@]3(C)C(=O)N(c4ccc(C(F)(F)F)cc4)C(=O)N23)c1,"inconclusive [inhibitor, single point]",–
O=C(Nc1ccc2ccccc2c1)c1cc(F)c(F)cc1Cl,"inconclusive [inhibitor, single point]",–
O=C(O)CC(NC(=O)C1CCCCC1)c1cc([N+](=O)[O-])ccc1Cl (stereo not given),–,inactive: 4.39%
CCCc1nc2oc3cc(OC)ccc3c(=O)c2c(=O)n1CCc1ccccc1,active: 23.1 µM,–
CCCCN1C(N)=NC[C@@H]1Cc1ccccc1,active: 14.6 µM,–
CCOC(=O)c1ccc(N2C(=O)C(O)=C(C(C)=O)C2c2ccc([N+](=O)[O-])cc2)cc1 (stereo not given),–,inactive: -6.86%
Cc1cc(C)cc(NC(=O)/C=C/c2ccc([N+](=O)[O-])s2)c1,active: 1.16 µM,–
C=C1C(=O)O[C@@H]2C3OC3(C)CC/C=C(\C)CC[C@@H]12 (stereo not given in full),active: 10.6 µM,–
COc1ccc(N2CCN(C(=O)c3cn(C4CCCC4)c(=O)c4c3c3ccccc3n4C)CC2)cc1,active: 16.4 µM,–
N#CCCn1c(SCC(=O)NCCc2ccc(F)cc2)nc2ccccc21,"inconclusive [inhibitor, single point]",–
COC(=O)C1=C(N)c2c(F)cccc2C1(C#N)c1ccccc1 (stereo not given),"inconclusive [inhibitor, single point]",–
C=CCNc1nc(NCc2ccc(NC(C)=O)cc2)c2sc(-c3ccccc3)cc2n1,active: 9.2 µM,–
CC(C)OC(=O)CC1C(=O)NCCN1C(=S)NC(=O)c1ccccc1 (stereo not given),–,inactive: -8.44%
O=c1[nH]c(Nc2ccc(F)cc2)cc2ccccc12,–,inconclusive: -34.8% [inhibitor]
CCc1ccccc1NC(=O)C(Cc1cccc(OC)c1OC)c1nn[nH]n1 (stereo not given),–,inactive: -0.382%
COc1ccc2c(c1)-c1c(ssc1=S)C(C)(C)N2S(=O)(=O)c1ccc(C)cc1,active: 5.17 µM,–
COC(=O)N/N=C/c1cn(CCOc2cccc(OC)c2)c2ccccc12,active: 20.6 µM,–
COc1ccc(-c2noc(N3CCC(C(=O)N(C)c4ccccc4C)CC3)n2)cc1,"inconclusive [inhibitor, single point]",–
C=CCC[C@H](Cc1ccc(F)cc1)C(=O)OC[C@@H](C)NC(=O)[C@H](CC=C)CC(=O)NCCO,"inconclusive [inhibitor, single point]",–
Cc1ccc(C(=O)Nc2ccc(-c3nc4ccccc4s3)c(O)c2)c(C)c1,"inconclusive [inhibitor, full curve]",–
